Test results taken from PubChem BioAssay (NCATS).
“And” between values parts separate entries of the source, which are not always exact repeats. Identical values can stand only once. The list shows a part of the results. Further columns of the screen follow, without active or inactive calls. For some of these results: Most of these compounds were active or inconclusive in the main read-out, so they are no random draw. For some of these results: Potencies come from curve fits of mixed quality, noted in brackets.

How the values were obtained:
[1] = qHTS Assay for Lipid Storage Modulators (AID 1519); conditions: Drosophila S3 cells, BODIPY lipid droplet/cell ratio, laser cytometry, cells loaded with oleic acid
Outline: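 Cells seeded at 5,000 per well were treated with compounds over a concentration series and loaded with oleic acid (400 uM, as added). Lipid droplet fluorescence (488 nm excitation, 500-530 nm channel) was read by laser-scanning cytometry and normalized to 20 uM Triacsin C.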

[2] = qHTS drug screen for cell cycle checkpoint inhibitors in PARPi-resistant BRCA-mutant ovarian cancer cell lines. (AID 1963452); conditions: PEO1/OlaR viability, CellTiter-Glo luminescence, 96 h
Outline: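 PEO1, PEO4 and PEO1/OlaR ovarian cancer cells, 600 per well, exposed 96 h at 37C to a dilution series. Viability read by CellTiter-Glo luminescence, normalized to DMSO and empty wells; activity summarized as Z-AUC.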

[3] = qHTS for identification of novel therapeutic agents for treatment of microphthalmiaassociated transcription factor (MiT) renal cell carcinoma (RCC) (AID 1963991); conditions: CellTiter-Glo, 48 h; for z-score: stronger effect = lower value
Outline: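 Curves over 11 concentrations were fitted to CellTiter-Glo luminescence, scaled between empty wells (0%) and DMSO (100%) viability. Cells were UOK109, UOK124 and UOK145 TFE3-fusion RCC lines at 500/well, exposed 48 hours at 37 C.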

[4] = qHTS Assay for Modulators of Human Peripheral Myelin Protein 22 (PMP22) Expression/Activity (AID 1967); conditions: Cell-based PMP22 reporter, dual-color luciferase ratio
Outline: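 Mouse MSC80 Schwann cells carrying Pmp22 promoter–green click beetle luciferase plus EF-alpha–red luciferase control, dosed 24 h at 37 °C. Dual-filter luminescence, overlap-corrected; %Activity from green/red ratio normalised to untreated cells, concentration-response curves fitted.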

[5] = qHTS assay for small molecule antagonists of peroxisome proliferator-activated receptor delta signaling (AID 588535); conditions: HEK293T PPARd-UAS-bla, beta-lactamase FRET ratio, 18 h; 460 nm channel;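 note: cells co-treated with a PPAR-delta agonist as stimulator during compound exposure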
Outline: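 Compounds tested in titration on PPAR-delta-UAS-bla HEK293T cells grown in charcoal/dextran-stripped serum (2%); beta-lactamase activity read via CCF4 emission at 460 and 530 nm.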

[6] = qHTS assay for small molecule antagonists of peroxisome proliferator-activated receptor gamma signaling (AID 588537); conditions: HEK293 PPARg-UAS-bla, beta-lactamase ratio, antagonist mode; measured here: W460 blue channel
Outline: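 HEK293 cells, PPAR-gamma-UAS-bla, 3000/well. Pre-incubation 6-6.5 h, 37 C. Compound titration with rosiglitazone 50 nM final, 16 h. CCF4 dye, 2 h RT, dual-emission fluorescence.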

[7] = qHTS Validation Assay to Find Inhibitors of Chronic Active B-Cell Receptor Signaling (AID 485345); conditions: ABC-DLBCL cells, chronic BCR signaling reporter
Outline: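 TMD8 ABC-DLBCL cells with dox-inducible green luciferase–IκBα fusion and red native luciferase; compounds 46 uM–3 nM, 4 h at 37C with doxycycline in 0.5% FBS IMDM. Green/red ratio normalized to basal and 10 uM MG-132.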

[8] = Nrf2 qHTS screen for inhibitors: Validation (AID 493153); conditions: A549 ARE-Fluc reporter, 18-24 h; AC50: CellTiter-Fluor fluorescence read, measured here: cytotoxicity CellTiter-Fluor AC50; viability change: measured here: cytotoxicity max response
Outline: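 Concentration-response test in A549 ARE_Fluc reporter cells (5% FBS OPTI-MEM), compound exposure 18-24 h at 37°C, 5% CO2. Cell viability measured first by CellTiter-Fluor fluorescence; ARE-driven luciferase luminescence then measured as Nrf2 activity.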

[9] = measured here: cell count channel max response
[10] = measured here: cell number channel AC50
[11] = measured here: lipid (BODIPY) channel AC50
[12] = measured here: lipid channel max response
[13] = TFE3-RCC UOK109 viability, measured here: UOK109 Z-AUC
[14] = TFE3-RCC viability, measured here: UOK124 Z-AUC
[15] = TFE3-RCC viability, measured here: UOK124 cell viability
[16] = TFE3-RCC viability, measured here: UOK145 Z-AUC
[17] = TFE3-RCC viability, measured here: UOK145 cell viability
[18] = measured here: red reporter channel AC50, EF-alpha promoter control reporter in MSC80 mouse Schwann cells
[19] = measured here: green reporter channel AC50, mouse Pmp22 promoter in mouse Schwann cells
[20] = measured here: CBG/CBR ratio read-out
[21] = measured here: CBR control luciferase (viability counter)
Tags give direction and shape of the fitted curve.

CC1=CC(=O)c2ccccc2C1=O
max response [1, 9]: -96.4% and -31.7%
AC50 [1, 10]: 15.8 µM [falling, single point] and 5.62 µM [falling, partial curve, poor fit]
AC50 [1, 11]: 15.8 µM [falling, single point]
max response [1, 12]: -109% and -64.6%
AC50 ([2]; measured here: PEO4 viability): 15.5 µM [falling, partial curve, poor fit]
z-score [3, 13]: 0.665
z-score [3, 14]: 0.327
AC50 [3, 15]: 20.9 µM [falling, partial curve]
z-score [3, 16]: -0.403
AC50 [3, 17]: 33.2 µM [falling, single point]

CCCOc1ccccc1-c1nc2n[nH]nc2c(=O)[nH]1
max response [1, 9]: 91.1%
AC50 [1, 10]: 28.2 µM [rising, partial curve, poor fit]
AC50 [1, 11]: 28.2 µM [rising, partial curve, poor fit]
max response [1, 12]: 115%
AC50 [4, 18]: 53.6 µM [falling, partial curve]

c1ccc2[nH]c(-c3cscn3)nc2c1
max response [1, 9]: 39.2%
AC50 [1, 10]: 17.8 µM [rising, partial curve, poor fit]
AC50 [1, 11]: 25.1 µM [rising, partial curve]
max response [1, 12]: 70.7%
max response [5]: 2.06%
AC50 [6]: 50.1 µM [rising, single point]
AC50 ([2]; measured here: PEO1 parental viability): 0.0692 µM [falling, full curve, poor fit]

O=C1c2ccccc2-c2n[nH]c3cccc1c23
max response [1, 9]: 53.2%
AC50 [1, 10]: 3.98 µM [rising, full curve]
AC50 [1, 11]: 3.55 µM [rising, full curve]
max response [1, 12]: 65.4%
AC50 [4, 19]: 1.69 µM [rising, full curve, poor fit]
AC50 [4, 18]: 84.9 µM [falling, single point]
AC50 [7, 20]: 7.31 µM [falling, partial curve]
AC50 [7, 21]: 23.1 µM [rising, partial curve, poor fit]
viability change [8]: 7.21%
AC50 ([2]; measured here: PEO4 viability): 24.5 µM [falling, single point]
z-score [3, 13]: -0.624
z-score [3, 14]: 0.741
z-score [3, 16]: -0.0908
AC50 [3, 17]: 20.9 µM [falling, partial curve]

CCOC(=O)C1=C(C)NC(=S)NC1c1cccc(O)c1 (stereo unspecified)
max response [1, 9]: 89%
AC50 [1, 10]: 12.6 µM [rising, partial curve]
AC50 [1, 11]: 15.8 µM [rising, partial curve]
max response [1, 12]: 115%
z-score [3, 13]: -0.619
z-score [3, 14]: -0.0172
AC50 [3, 15]: 0.0418 µM [falling, full curve]
z-score [3, 16]: -0.183
AC50 [3, 17]: 0.187 µM [falling, full curve]

O=C(O)[C@@H]1C[C@H](C(=O)O)N1
max response [1, 9]: -34.6%
AC50 [1, 10]: 0.00224 µM [falling, full curve, poor fit]
AC50 [1, 11]: 0.00112 µM [falling, full curve, poor fit]
max response [1, 12]: -35.5%
AC50 [4, 18]: 15.1 µM [rising, single point]

CC1(C)C(=O)N(CCN2CCC(C(=O)c3ccc(F)cc3)CC2)c2ccccc21
max response [1, 9]: 3.54%
AC50 [1, 10]: 3.98 µM [falling, full curve, poor fit]
AC50 [1, 11]: 3.98 µM [falling, full curve, poor fit]
max response [1, 12]: -1.98%
AC50 [4, 19]: 75.7 µM [falling, partial curve]
AC50 [4, 18]: 67.5 µM [falling, partial curve, poor fit]
viability change [8]: -8.37%
z-score [3, 13]: 0.777
z-score [3, 14]: 0.677
AC50 [3, 15]: 37.2 µM [falling, single point]
z-score [3, 16]: 0.696

OCc1ccc(-c2nn(Cc3ccccc3)c3ccccc23)o1
max response [1, 9]: -41.7%
AC50 [1, 10]: 0.251 µM [falling, full curve, poor fit]
AC50 [1, 11]: 0.251 µM [falling, full curve, poor fit]
max response [1, 12]: -63.1%
AC50 [4, 19]: 37.9 µM [falling, full curve]
AC50 [4, 18]: 37.9 µM [falling, full curve, poor fit]
AC50 [7, 20]: 13 µM [falling, partial curve]
AC50 ([2]; measured here: PEO4 viability): 24.5 µM [falling, single point]
z-score [3, 13]: -0.517
z-score [3, 14]: 0.527
z-score [3, 16]: 0.704

O=c1c(O)c(-c2ccc(O)c(O)c2)oc2cc(O)ccc12
max response [1, 9]: -36.9%
AC50 [1, 10]: 31.6 µM [falling, single point]
AC50 [1, 11]: 39.8 µM [falling, single point]
max response [1, 12]: -32.8%
z-score [3, 13]: 0.239
z-score [3, 14]: 0.438
AC50 [3, 15]: 29.6 µM [falling, single point]
z-score [3, 16]: 0.236
AC50 [3, 17]: 20.9 µM [falling, single point]

NNCCc1ccccc1
max response [1, 9]: -17.3%
AC50 [1, 10]: 1.58 µM [falling, full curve, poor fit]
AC50 [1, 11]: 1.58 µM [falling, full curve, poor fit]
max response [1, 12]: -13.5%
AC50 [4, 18]: 95.3 µM [falling, single point]
AC50 [7, 21]: 29.1 µM [falling, single point]
z-score [3, 13]: -0.18
z-score [3, 14]: 0.83
z-score [3, 16]: -0.121
AC50 [3, 17]: 14.8 µM [falling, partial curve]
